# Measurements reported in PubChem BioAssay AID1645882 (National Center for Advancing Translational Sciences (NCATS), 2021).
# Hit rate of the full screen: of about 16,000 compounds, about 120 (0.75%) were called active. About 4% were inconclusive and are not listed. The call rests on the fitted dose curve; in most records, active means well fitted inhibition curve with a large enough effect; inconclusive means small, poorly fitted or top-dose-only effect; inactive means no such curve, though single readings can be large or run the other way. Some of the results follow.
# Biological target: Rap guanine nucleotide exchange factor 3 (Homo sapiens) (UniProt O95398)
# Chain of UniProt O95398 (O95398 whole entry, looked up): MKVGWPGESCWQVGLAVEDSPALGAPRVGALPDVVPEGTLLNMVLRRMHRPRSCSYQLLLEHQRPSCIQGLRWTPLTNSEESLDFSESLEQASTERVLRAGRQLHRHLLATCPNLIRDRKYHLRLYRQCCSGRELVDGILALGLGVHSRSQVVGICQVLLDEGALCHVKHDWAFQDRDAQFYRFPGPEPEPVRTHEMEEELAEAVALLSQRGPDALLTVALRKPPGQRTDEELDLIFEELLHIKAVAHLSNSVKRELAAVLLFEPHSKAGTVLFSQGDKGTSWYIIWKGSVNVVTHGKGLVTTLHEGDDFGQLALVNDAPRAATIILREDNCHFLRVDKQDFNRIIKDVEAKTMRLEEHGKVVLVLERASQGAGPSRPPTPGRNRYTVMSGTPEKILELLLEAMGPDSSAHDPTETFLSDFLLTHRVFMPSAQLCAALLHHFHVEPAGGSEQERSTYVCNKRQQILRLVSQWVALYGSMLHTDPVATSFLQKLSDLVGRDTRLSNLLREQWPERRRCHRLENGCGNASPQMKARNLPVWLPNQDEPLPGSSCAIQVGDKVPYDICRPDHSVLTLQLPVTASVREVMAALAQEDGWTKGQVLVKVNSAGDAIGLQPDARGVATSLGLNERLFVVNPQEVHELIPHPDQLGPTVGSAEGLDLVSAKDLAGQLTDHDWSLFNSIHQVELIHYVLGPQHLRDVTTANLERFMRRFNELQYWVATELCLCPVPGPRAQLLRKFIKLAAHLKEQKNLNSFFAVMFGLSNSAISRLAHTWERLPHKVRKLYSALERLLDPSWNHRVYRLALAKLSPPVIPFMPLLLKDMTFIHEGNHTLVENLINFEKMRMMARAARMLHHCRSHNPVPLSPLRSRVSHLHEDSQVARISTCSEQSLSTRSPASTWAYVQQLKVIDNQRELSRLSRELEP
# Experiment: Validation qHTS for antagonist of cAMP-regulated guanine nucleotide exchange factor 3 (EPAC1); further: nearly all actives have a fitted effect of over 75% in size
# Conditions: EPAC1 Rap1B-BODIPY-GDP exchange, fluorescence; activity change, negative = inhibition: at the top concentration
# Text: Assay Provider (PI): Xiaodong Cheng Ph.D.
# The University of Texas Medical Branch, […], TX
# In multi-cellular eukaryotic organisms, the effects of cAMP are transduced by two ubiquitously-expressed intracellular cAMP receptors, the classic protein kinase A/cAMP-dependent protein kinase (PKA/cAPK) and the more recently discovered exchange protein directly activated by cAMP/cAMP-regulated guanine nucleotide exchange factor (EPAC/cAMP-GEF). Both PKA and EPAC are ubiquitously expressed in all tissues, and an increase in intracellular cAMP levels will lead to the activation of both PKA and EPAC. Therefore, careful dissections of the individual role and relative contribution of EPAC and PKA within the overall cAMP signaling in various model systems are critical for further elucidating the mechanism of cAMP signaling. To date no EPAC-specific antagonists and agonist, as well as isoform-specific agonists have been reported, and developing EPAC-specific pharmacological probes to determine the physiological functions that EPAC play in the overall cAMP-mediated signaling remains a major challenge within the research field. Furthermore, identified regulators of EPAC may lead to new mechanism-based therapeutic strategies specifically targeting the EPAC / cAMP-signaling components as EPAC has been implicated to play important roles in major human pathological conditions such as diabetes, heart disease, and cancer.
# This qHTS will be used to screen the Molecular Libraries Small Molecule Repository (MLSMR) as a concentration-titration series using the NCGC unique quantitative screening (qHTS) platform to find activators for EPAC1. In addition, this assay will also be used as a counterscreen for the EPAC2 qHTS. This fluorescent based assay is developed and validated for EPAC1 that measures exchange using EPAC effector Rap1 complex with BODIPY-GDP, a GDP analog with a tethered fluorophores. Activators are identified by monitoring the change in fluorescence signal as the exchanged free BODIPY-GDP has a reduced fluorescence compared to Rap1-bound BODIPY-GDP. Increase in signal (activation) is the desired outcome for the EPAC1 agonist while no activity in this assay is desired for the EPAC2 agonist counterscreen.
# [1] de Rooij, J., Zwartkruis, F. J., Verheijen, M. H., Cool, R. H., Nijman, S. M., Wittinghofer, A., and Bos, J.L. (1998) Nature 396, 474-477.
# Briefly, three uL of reagents (100 nM EPAC1, 250 nM RAP1B-BODIPY-GDP, 50 uM GDP) were dispensed into a 1536-well Greiner black solid-bottom medium binding assay plate. Controls and test compounds (23 nL) were transferred to the plate via a Kalypsys pin tool equipped with a 1536-pin array. The plates were centrifuged at 1,000 rpm for 15 seconds followed by 5 minute incubation at room temperature. The assay plates were read at 5 minute intervals for 30 minutes in the ViewLux plate reader using 480nm excitation and 540nm emission filters. The results were normalized to the […] positive control ATA and DMSO.
# Potency means the concentration at half of the fitted maximal effect.
Structure (SMILES),"activity change, negative = inhibition",Potency
CN1CC[C@@H]2CN3CCc4cccc(c43)[C@H]2C1,inactive: -17.3%,–
O=C(Oc1ccccc1)N1CCC[C@@]2(CCN(Cc3ccccc3)C2)C1,inactive: -2.81%,–
COc1cc(CC(C)N)c(OC)cc1Br (stereo unspecified),inactive,–
C[N+](C)(C)CC(=O)[O-],inactive: -2.46% [at 75.8 µM],–
N#CC1(N2CCCCC2)CCCCC1,inactive: 10%,–
CNC1[C@@H](O)C(OC2C(N)C[C@H](N)[C@@H](O[C@@H]3OC(C(C)O)C(O)C(O)C3N)C2O)OC[C@]1(C)O (stereo partly specified),inactive: 5.43%,–
C[N+]1(C)C2CCC1CC(OC(=O)C(CO)c1ccccc1)C2 (stereo unspecified),inactive,–
CC1CCC(C(C)C)C(OC(=O)c2ccccc2N)C1 (stereo unspecified),inactive: -9.58%,–
CCCN(CCC)C1Cc2cc(OC)c(OC)cc2C1,inactive,–
C[C@H]1[C@H]2Cc3ccc(O)cc3[C@]1(C)CCN2CCc1ccccc1,inactive: 27.1% [at 320 µM],–
O=c1c2ccccc2[se]n1-c1ccccc1,inactive,–
c1ccc2c(c1)Nc1ccccc1S2,inactive,–
O=C(O)c1nn(Cc2ccc(Cl)c(Cl)c2)c2ccccc12,inactive: 9.95%,–
C[C@]12CC[C@H]3[C@@H](CC=C4C[C@@H](O)CC[C@@]43C)[C@@H]1CC[C@@H]2O,inactive: -5.16%,–
CC(C)(C)C(O)C(Oc1ccc(Cl)cc1)n1cncn1 (stereo unspecified),inactive: 41.3% [at 320 µM],–
C=C(C)[C@H]1C2C(=O)O[C@H]1[C@H]1OC(=O)[C@@]34O[C@@H]3C[C@]2(O)[C@@]14C,inactive,–
CN(C)CCc1c[nH]c2cccc(O)c12,inactive: 41% [at 320 µM],–
N#Cc1ccc(CN2CCCC3(CCN(C(=O)Oc4ccccc4)CC3)C2)cc1,inactive: -4.06%,–
O=c1ccc2cc(O[C@@H]3O[C@H](CO)[C@@H](O)[C@H](O)[C@H]3O)c(O)cc2o1,inactive: 13.9% [at 75.8 µM],–

Structure (SMILES),"activity change, negative = inhibition",Potency
COc1cc2c(cc1O)C[C@H]1c3c(cc(OC)c(O)c3-2)CCN1C,inactive: -2.92%,–
CC(C)NC(C)Cc1ccc(I)cc1 (stereo unspecified),inactive,–
O=C(Oc1ccccc1)N1CCC2(CCN(Cc3ccccc3)CC2)CC1,inactive: 26.2%,–
CC(C)=CCCC1(C)C=Cc2c(O)c3c(c(CC=C(C)C)c2O1)OC12C(=CC4CC1C(C)(C)OC2(C/C=C(/C)C(=O)O)C4=O)C3=O (stereo unspecified),–,active: 50.1 µM
O=C1c2ccccc2-c2cccc3cccc1c23,inactive: 15.5%,–
CSCC[C@H](NC(=O)[C@H](Cc1ccccc1)NC(=O)CNC(=O)CNC(=O)[C@@H](N)Cc1ccc(O)cc1)C(=O)O,inactive: -4.49% [at 15.3 µM],–
CNCC/C=C/c1cccnc1,inactive: -2.41%,–
C[C@](O)(CS(=O)(=O)c1ccc(F)cc1)C(=O)Nc1ccc(C#N)c(C(F)(F)F)c1,inactive: 23%,–
COC(=O)N1CCN(C(=O)Cc2ccc(Cl)c(Cl)c2)C(CN2CCCC2)C1 (stereo unspecified),inactive,–
NCC(O)c1ccc(O)cc1 (stereo unspecified),inactive,–
COc1ccc2[nH]cc(CCN(C)C)c2c1,inactive: 25.3%,–
CC1C(=O)OC2C1CC[C@@]1(C)C=CC(=O)[C@@]3(C)O[C@@]213 (stereo partly specified),inactive: 8.54%,–
Cc1nnc2n1-c1sc(Br)cc1C(c1ccccc1Cl)=NC2,inactive: 39.5%,–
N#Cc1nn(-c2c(Cl)cc(C(F)(F)F)cc2Cl)c(N)c1S(=O)C(F)(F)F (stereo unspecified),inactive,–
COc1cc2c(cc1O)CCNC2C (stereo unspecified),inactive: 10.6%,–
CC1=C(O)C(=O)[C@@H]2O[C@@H]2C1=O,inactive: 19.9%,–
C[N+]1([O-])[C@@H]2CC(OC(=O)[C@H](CO)c3ccccc3)C[C@H]1[C@@H]1O[C@@H]12 (stereo partly specified),inactive,–
NC(CCCCCP(=O)(O)O)C(=O)O (stereo unspecified),inactive: -4.64% [at 75.8 µM],–
CCCCCCCCOC(=O)c1ccccc1C(=O)OCCCCCCCC,inactive: 28.9%,–

Structure (SMILES),"activity change, negative = inhibition",Potency
O=C(Oc1ccccc1)N1CCC2(CC1)CN(C(c1ccccc1)c1ccccc1)C2,inactive: -20.6%,–
CNC1C2CN3CCC(O2)C13 (stereo unspecified),inactive: 12.6%,–
O=C1Nc2cc(Cl)c(Cl)cc2N2CCNC[C@H]12,inactive: -1.08%,–
COc1c2c(cc3c1OCO3)CCN(C)C2,inactive: -1.6% [at 75.8 µM],–
CC1(C)[C@H](C=C(Cl)Cl)[C@H]1C(=O)OCc1c(F)c(F)cc(F)c1F,inactive: 2.06%,–
N[C@H](Cc1o[nH]c(=O)c1Cl)C(=O)O,inactive: 9.26%,–
CN1CCc2cccc(Cl)c2CC1,inactive: 14.8% [at 75.8 µM],–
C[C@]12CC[C@@H]3c4ccc(OC(=O)N(CCCl)CCCl)cc4CC[C@H]3[C@@H]1CC[C@@H]2OP(=O)(O)O,inactive,–
CC(C)CN1CC[C@@]2(CCCN(C(=O)c3ccncc3)C2)C1,inactive: 27.5%,–
Nc1ccc(Cl)cc1,inactive: -4.67% [at 320 µM],–
CC(C)CN1CCCC2(CCN(C(=O)c3ccncc3)CC2)C1,inactive: 10.1%,–
CN[C@@H](C)[C@H](O)c1ccccc1,inactive: 53.3%,–
O=C1/C(=C/c2ccc(N(CCCl)CCCl)cc2)Cc2ccccc21,inactive: 25.5%,–
C=CCN1CC[C@]23CCCCC2[C@H]1Cc1ccc(O)cc13 (stereo partly specified),inactive: 3.27% [at 75.8 µM],–
CC[C@]1(O)CC[C@H]2[C@@H]3CCC4=CCCC[C@@H]4[C@H]3CC[C@@]21C,inactive: 5.98%,–
S=C=Nc1cccc(C2(N3CCCCC3)CCCCC2)c1,inactive: 15.4%,–
CNC(=O)CSP(=S)(OC)OC,inactive: 16.7%,–
CCNc1nc(Cl)nc(NC(C)C)n1,inactive: -5.08%,–
